Results on five molecules are retold here after patent publication US20210130437A1 (ALPINE IMMUNE SCIENCES, published 2021).

T1: human TIGIT expressed on cells (Jurkat/TIGIT cells) (human, UniProt Q495A1 22-244)
T1 sequence: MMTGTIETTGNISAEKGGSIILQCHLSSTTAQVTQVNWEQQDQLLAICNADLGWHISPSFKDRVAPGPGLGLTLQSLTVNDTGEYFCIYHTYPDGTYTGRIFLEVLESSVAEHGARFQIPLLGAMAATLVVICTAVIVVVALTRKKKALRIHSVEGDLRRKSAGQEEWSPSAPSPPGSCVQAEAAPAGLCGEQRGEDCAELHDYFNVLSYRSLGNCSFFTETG

B1: PD-L2/CD155 Stack 13 (Fc fusion)
chain 1: WPPPGTGDVVVQAPTQVSGFLGDSVTLPCYLQVPNMEVTHVSQLTWARHGESGSMAVFHQTQGPWYAESKRLEFVAARLGAELRNASLRMFGLRVEDEGNYTCQFVTFPQRSRSVDIWLRVLGGGGSGGGGSGGGGSWPPPGTGDVVVQAPTQVSGFLGDSVTLPCYLQVPNMEVTHVSQLTWARHGESGSMAVFHQTQGPWYAESKRLEFVAARLGAELRNASLRMFGLRVEDEGNYTCQFVTFPQRSRSVDIWLRVLGGGGSGGGGSEPKSSDKTHTCPPCPAPEAEGAPSVFLFPPKPKDTLMISRTPEVTCVVVDVSHEDPEVKFNWYVDGVEVHNAKTKPREEQYNSTYRVVSVLTVLHQDWLNGKEYKCKVSNKALPAPIEKTISKAKGQPREPQVYTLPPCREEMTKNQVSLWCLVKGFYPSDIAVEWESNGQPENNYKTTPPVLDSDGSFFLYSKLTVDKSRWQQGNVFSCSVMHEALHNHYTQKSLSLSPGKGGGGSGGGGSGGGGSLFTVTVPKELYIIEQGSNVTLECNFDTGSHVNLGAITASLQKVENDASPHRERATLLEEQLPLGRALFHIPQVQVRDEGQYRCIIIYGDAWDYKYLTLKVKAGGGGSGGGGSGGGGSLFTVTVPKELYIIEQGSNVTLECNFDTGSHVNLGAITASLQKVENDASPHRERATLLEEQLPLGRALFHIPQVQVRDEGQYRCIIIYGDAWDYKYLTLKVKA
chain 2: HMSSVSAQ[human IgG1 Fc with changes not given here]GGGGSGGGGSGGGGSLFTVTVPKELYIIEQGSNVTLECNFDTGSHVNLGAITASLQKVENDASPHRERATLLEEQLPLGRALFHIPQVQVRDEGQYRCIIIYGDAWDYKYLTLKVKAGGGGSGGGGSGGGGSLFTVTVPKELYIIEQGSNVTLECNFDTGSHVNLGAITASLQKVENDASPHRERATLLEEQLPLGRALFHIPQVQVRDEGQYRCIIIYGDAWDYKYLTLKVKA
notes: Heterodimer
B2: PD-L2/CD155 Stack 16 (Fc fusion)
chain 1: LFTVTVPKELYIIEQGSNVTLECNFDTGSHVNLGAITASLQKVENDASPHRERATLLEEQLPLGRALFHIPQVQVRDEGQYRCIIIYGDAWDYKYLTLKVKAGGGGSGGGGSGGGGSLFTVTVPKELYIIEQGSNVTLECNFDTGSHVNLGAITASLQKVENDASPHRERATLLEEQLPLGRALFHIPQVQVRDEGQYRCIIIYGDAWDYKYLTLKVKAGGGGSGGGGSEPKSSDKTHTCPPCPAPEAEGAPSVFLFPPKPKDTLMISRTPEVTCVVVDVSHEDPEVKFNWYVDGVEVHNAKTKPREEQYNSTYRVVSVLTVLHQDWLNGKEYKCKVSNKALPAPIEKTISKAKGQPREPQVYTLPPCREEMTKNQVSLWCLVKGFYPSDIAVEWESNGQPENNYKTTPPVLDSDGSFFLYSKLTVDKSRWQQGNVFSCSVMHEALHNHYTQKSLSLSPGKGGGGSGGGGSGGGGSWPPPGTGDVVVQAPTQVSGFLGDSVTLPCYLQVPNMEVTHVSQLTWARHGESGSMAVFHQTQGPWYAESKRLEFVAARLGAELRNASLRMFGLRVEDEGNYTCQFVTFPQRSRSVDIWLRVLGGGGSGGGGSGGGGSWPPPGTGDVVVQAPTQVSGFLGDSVTLPCYLQVPNMEVTHVSQLTWARHGESGSMAVFHQTQGPWYAESKRLEFVAARLGAELRNASLRMFGLRVEDEGNYTCQFVTFPQRSRSVDIWLRVL
chain 2: HMSSVSAQ[human IgG1 Fc with changes not given here]GGGGSGGGGSGGGGSLFTVTVPKELYIIEQGSNVTLECNFDTGSHVNLGAITASLQKVENDASPHRERATLLEEQLPLGRALFHIPQVQVRDEGQYRCIIIYGDAWDYKYLTLKVKAGGGGSGGGGSGGGGSLFTVTVPKELYIIEQGSNVTLECNFDTGSHVNLGAITASLQKVENDASPHRERATLLEEQLPLGRALFHIPQVQVRDEGQYRCIIIYGDAWDYKYLTLKVKA
notes: Heterodimer; also called 1200 + 1204
B3: PD-L2/CD155 Stack 11 (Fc fusion)
chain 1: WPPPGTGDVVVQAPTQVSGFLGDSVTLPCYLQVPNMEVTHVSQLTWARHGESGSMAVFHQTQGPWYAESKRLEFVAARLGAELRNASLRMFGLRVEDEGNYTCQFVTFPQRSRSVDIWLRVLGGGGSGGGGSGGGGSWPPPGTGDVVVQAPTQVSGFLGDSVTLPCYLQVPNMEVTHVSQLTWARHGESGSMAVFHQTQGPWYAESKRLEFVAARLGAELRNASLRMFGLRVEDEGNYTCQFVTFPQRSRSVDIWLRVLGGGGSGGGGSEPKSSDKTHTCPPCPAPEAEGAPSVFLFPPKPKDTLMISRTPEVTCVVVDVSHEDPEVKFNWYVDGVEVHNAKTKPREEQYNSTYRVVSVLTVLHQDWLNGKEYKCKVSNKALPAPIEKTISKAKGQPREPQVYTLPPCREEMTKNQVSLWCLVKGFYPSDIAVEWESNGQPENNYKTTPPVLDSDGSFFLYSKLTVDKSRWQQGNVFSCSVMHEALHNHYTQKSLSLSPGK
chain 2: LFTVTVPKELYIIEQGSNVTLECNFDTGSHVNLGAITASLQKVENDASPHRERATLLEEQLPLGRALFHIPQVQVRDEGQYRCIIIYGDAWDYKYLTLKVKAGGGGSGGGGSGGGGSLFTVTVPKELYIIEQGSNVTLECNFDTGSHVNLGAITASLQKVENDASPHRERATLLEEQLPLGRALFHIPQVQVRDEGQYRCIIIYGDAWDYKYLTLKVKAGGGGSGGGGS[human IgG1 Fc with changes not given here]
notes: Heterodimer; also called (CD155 IgV) (G4S)3 (CD155 IgV) (G4S)2 knob Fc and (PD-L2 IgV) (G4S)3 (PD-L2 IgV) (G4S)2 hole Fc; 1201 + 1202
B4: PD-L2/CD155 Stack 15 (Fc fusion)
chain 1: B2 chain 1
chain 2: LFTVTVPKELYIIEQGSNVTLECNFDTGSHVNLGAITASLQKVENDASPHRERATLLEEQLPLGRALFHIPQVQVRDEGQYRCIIIYGDAWDYKYLTLKVKAGGGGSGGGGSGGGGSLFTVTVPKELYIIEQGSNVTLECNFDTGSHVNLGAITASLQKVENDASPHRERATLLEEQLPLGRALFHIPQVQVRDEGQYRCIIIYGDAWDYKYLTLKVKAGGGGSGGGGS[human IgG1 Fc with changes not given here]
notes: Heterodimer; also called 1200 + 1202
B5: PD-L2/CD155 Stack 14 (Fc fusion)
chain 1: B1 chain 1
chain 2: LFTVTVPKELYIIEQGSNVTLECNFDTGSHVNLGAITASLQKVENDASPHRERATLLEEQLPLGRALFHIPQVQVRDEGQYRCIIIYGDAWDYKYLTLKVKAGGGGSGGGGSGGGGSLFTVTVPKELYIIEQGSNVTLECNFDTGSHVNLGAITASLQKVENDASPHRERATLLEEQLPLGRALFHIPQVQVRDEGQYRCIIIYGDAWDYKYLTLKVKAGGGGSGGGGS[human IgG1 Fc with changes not given here]
notes: Heterodimer

The first assay deals with T2, human PD-1 expressed on cells (Jurkat/PD-1 cells) (human, UniProt Q15116 21-288).
T2 construct: also called PDCD1
T2 sequence (Q15116 21-288): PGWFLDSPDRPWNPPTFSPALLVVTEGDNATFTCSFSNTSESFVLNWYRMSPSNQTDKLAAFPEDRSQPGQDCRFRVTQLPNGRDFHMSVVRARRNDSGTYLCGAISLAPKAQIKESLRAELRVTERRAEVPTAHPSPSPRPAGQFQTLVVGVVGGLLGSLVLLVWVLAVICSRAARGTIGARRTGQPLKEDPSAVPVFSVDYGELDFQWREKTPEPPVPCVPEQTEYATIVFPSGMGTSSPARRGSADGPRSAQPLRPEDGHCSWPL
The assay is described as follows: flow cytometry, Jurkat/PD-1 cells. On the technique in general: Flow cytometry measures light scatter and fluorescence of single cells or particles in a stream.
Consider B1, for which the “MFI at 6.25 nM” value turned out to be 515 MFI.
With B2, the “MFI at 6.25 nM” value is 3780 MFI.
On to B3, for which the “MFI at 6.25 nM” value came to 1760 MFI.
Take B4: the “MFI at 6.25 nM” value was found to be 11000 MFI.
On the same count and under the same terms, next, B5: 4820 MFI.

The target in the next assay is T1, human TIGIT expressed on cells …. In words: flow cytometry, Jurkat/TIGIT cells.
In the case of B1, the “MFI at 6.25 nM” value worked out at 8300 MFI.
Turning to B2, the “MFI at 6.25 nM” value came out at 1480 MFI.
Turning to B3, the “MFI at 6.25 nM” value is 9640 MFI.
In the case of B4, the “MFI at 6.25 nM” value amounted to 3340 MFI.
For the molecule B5, the “MFI at 6.25 nM” value was found to be 7600 MFI.
